Experimental data reported in the supplement of paper PMC12217912.
The other results are listed elsewhere or left out. Sequences were assembled here from the parent chain. Inactive controls read about 0.05.

B1: TEV protease; numbered along this chain (parent)
chain: MGESLFKGPRDYNPISSSICHLTNESDGHTTSLYGIGFGPFIITNKHLFRRNNGTLVVQSLHGVFKVKDTTTLQQHLVDGRDMIIIRMPKDFPPFPQKLKFREPQREERICLVTTNFQTKSMSSMVSDTSCTFPSGDGIFWKHWIQTKDGQCGSPLVSTRDGFIVGIHSASNFTNTNNYFTSVPKNFMELLTNQEAQQWVSGWRLNADSVLWGGHKVFMVKPEEPFQPVKEATQL

Variants of: B1
Test: raw area under fraction-flipped curve 0-4 h after induction (AUC4h, not background-subtracted), DNA-recorder readout of cleavage of the substrate (dimensionless); higher = more cleavage of the substrate by the protease variant
Conditions: temperature: 34 °C; time window: 0-4 h after rhamnose induction
Method: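 In vivo DNA recorder in E. coli TOP10(DE3) ΔrhaA at 34 °C. Each TEVp single-site mutant (parent TEVp 0) is paired with a single-site variant of the 7-mer TEVs (canonical ENLYFQ|S). The substrate sits between flexible linkers in a Bxb1-sfGFP-TEVs-SsrA fusion, so cleavage stabilises Bxb1 and speeds flipping of a recombination array, read by NGS. The value is the raw area under the fraction-flipped curve over 0-4 h after rhamnose induction (AUC4h), with ≥20 reads per time point. It is not background-subtracted; inactive controls average about 0.047.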
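Further: Bxb1 expression induced with 0.2% (w/v) L-rhamnose at OD600 near 0.5, cultures sampled hourly, flipped fraction per protease–substrate barcode pair counted by paired-end Illumina sequencing.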

Variant | area with substrate FNLYFQS | area with substrate HNLYFQS | area with substrate LNLYFQS | area with substrate PNLYFQS | area with substrate QNLYFQS | area with substrate RNLYFQS | area with substrate VNLYFQS | area with substrate WNLYFQS | area with substrate GNLYFQS | area with substrate KNLYFQS | area with substrate MNLYFQS | area with substrate NNLYFQS | area with substrate SNLYFQS | area with substrate TNLYFQS | area with substrate INLYFQS | area with substrate YNLYFQS
V126D | 0.0692 | 0.0561 | 0.0756 | 0.0641 | 0.0712 | 0.0663 | 0.0583 | 0.061 | – | – | – | – | – | – | – | –
S158C | 0.0623 | 0.0624 | 0.0674 | 0.0618 | – | – | 0.0588 | – | 0.064 | 0.0769 | 0.0616 | 0.0275 | 0.0493 | 0.0528 | – | –
W203H | 0.0591 | 0.0638 | 0.0724 | 0.0597 | – | 0.0495 | – | 0.0606 | 0.068 | 0.0334 | – | – | – | – | 0.0612 | 0.0562
L99A | 0.084 | – | – | – | – | – | – | 0.0638 | 0.0658 | 0.0606 | 0.0626 | 0.0772 | – | 0.0607 | – | –
Q75S | 0.0509 | 0.0594 | – | 0.057 | – | – | – | – | – | – | 0.0404 | – | – | 0.0674 | – | –
Q75Y | 0.0577 | 0.0579 | – | 0.0575 | – | 0.0717 | – | 0.0532 | – | 0.0508 | – | 0.0768 | 0.0547 | – | – | 0.0476
Q75G | 0.0367 | 0.0586 | 0.0594 | – | – | – | – | 0.0771 | 0.0541 | – | – | – | – | 0.069 | 0.0586 | –
V229N | 0.0559 | 0.0592 | 0.0637 | 0.0614 | – | – | – | 0.0562 | 0.0614 | 0.071 | – | – | – | 0.0486 | 0.0709 | –
F95Q | 0.052 | 0.0438 | – | – | – | – | – | 0.0477 | – | – | – | 0.0263 | – | – | – | 0.0417
S209M | 0.0584 | 0.058 | 0.0671 | – | – | 0.0768 | – | 0.0674 | – | – | 0.0636 | – | 0.0741 | – | – | 0.06
W199T | 0.0759 | 0.0464 | – | 0.0745 | – | – | – | 0.0471 | – | – | 0.0531 | 0.0634 | 0.0601 | 0.0491 | 0.0567 | 0.0598
W212T | 0.0546 | 0.0543 | 0.0653 | – | – | – | – | 0.0585 | 0.056 | 0.0606 | 0.0595 | – | – | 0.0664 | 0.054 | 0.049
H143V | 0.0523 | 0.0573 | 0.0596 | 0.036 | – | – | 0.0695 | 0.0617 | 0.0502 | 0.0637 | 0.0589 | 0.0777 | – | 0.0584 | 0.0549 | 0.0696
H62P | 0.0611 | 0.0724 | 0.0548 | 0.062 | – | – | 0.0752 | 0.0569 | – | – | – | – | 0.0665 | 0.0941 | – | –
H62Q | 0.0582 | 0.0707 | – | 0.0667 | – | – | – | 0.0599 | 0.0966 | – | 0.0862 | – | – | – | – | –
T119N | 0.0416 | 0.0525 | 0.0779 | 0.0783 | – | – | 0.0657 | – | – | – | – | 0.0813 | 0.067 | 0.0596 | 0.0534 | 0.0592
W144E | 0.0557 | 0.0618 | 0.0724 | 0.0538 | – | – | – | 0.0226 | 0.0698 | 0.06 | 0.0701 | – | 0.0664 | 0.07 | 0.0588 | –
Y179H | 0.0638 | – | 0.0498 | – | – | – | – | 0.0557 | 0.0505 | 0.0632 | 0.0614 | – | 0.0569 | 0.0623 | – | –
Y179G | 0.0537 | 0.0466 | 0.102 | – | – | – | – | 0.0545 | – | – | 0.0657 | – | 0.0597 | – | – | –

Variant | area with substrate FNLYFQS | area with substrate HNLYFQS | area with substrate LNLYFQS | area with substrate PNLYFQS | area with substrate QNLYFQS | area with substrate RNLYFQS | area with substrate VNLYFQS | area with substrate WNLYFQS | area with substrate GNLYFQS | area with substrate KNLYFQS | area with substrate MNLYFQS | area with substrate NNLYFQS | area with substrate SNLYFQS | area with substrate TNLYFQS | area with substrate INLYFQS | area with substrate YNLYFQS
R102L | 0.0453 | 0.047 | – | 0.0366 | – | – | – | – | 0.0617 | – | 0.0437 | – | 0.052 | 0.0633 | – | 0.0483
R102V | 0.0523 | 0.0446 | 0.0577 | – | 0.0673 | – | – | 0.0618 | 0.0509 | – | 0.063 | 0.0273 | – | 0.0429 | 0.0821 | 0.0557
K46G | – | 0.049 | 0.0552 | 0.0593 | – | – | 0.0526 | 0.0588 | 0.0641 | 0.0653 | 0.0588 | – | – | 0.0662 | 0.0581 | 0.0421
L156F | 0.0719 | 0.0691 | 0.0503 | 0.0631 | 0.0515 | – | 0.0611 | 0.0651 | 0.0554 | – | 0.0617 | 0.0523 | 0.0792 | – | – | 0.0541
G162E | 0.0549 | 0.0562 | 0.052 | 0.0564 | 0.0673 | – | – | – | – | 0.0523 | 0.0662 | 0.0628 | – | 0.0571 | – | 0.05
G162Y | 0.0814 | 0.0624 | 0.0582 | 0.0541 | – | 0.0445 | – | 0.0467 | 0.0715 | – | 0.0658 | – | 0.0856 | – | – | 0.0596
Q146E | 0.058 | 0.0601 | – | 0.0705 | – | – | 0.0526 | – | 0.0732 | 0.0641 | 0.0714 | 0.0797 | 0.0769 | – | 0.0627 | 0.0671
Q146G | 0.0647 | – | 0.0522 | 0.0634 | – | 0.0687 | 0.0652 | 0.0562 | – | – | – | – | – | 0.0625 | 0.0578 | 0.074
A232I | 0.0768 | – | 0.0644 | – | – | – | 0.0612 | – | – | 0.0831 | – | – | – | 0.0736 | – | –
D69V | 0.0476 | 0.063 | 0.0413 | 0.0612 | – | – | 0.0629 | 0.0556 | – | 0.0563 | – | 0.0583 | 0.0631 | 0.0502 | – | 0.0667
T115I | 0.0669 | 0.0619 | 0.0813 | – | – | – | – | 0.0464 | 0.0667 | – | – | – | – | 0.0613 | 0.0435 | 0.0609
E189Q | 0.0491 | 0.0609 | 0.0615 | – | – | – | – | 0.0551 | – | – | – | – | – | 0.0595 | – | 0.079
D91Y | 0.0702 | 0.0608 | 0.0645 | 0.0739 | 0.0574 | – | – | 0.0667 | 0.0735 | – | – | – | – | 0.0613 | – | 0.0742
S135E | 0.0552 | 0.0682 | 0.0597 | – | – | – | – | 0.0585 | – | – | 0.0543 | – | 0.0698 | 0.0765 | – | –
P225Y | 0.074 | 0.0633 | 0.0628 | 0.0722 | 0.0763 | – | – | 0.0707 | 0.0847 | – | 0.0947 | 0.0602 | 0.06 | 0.0467 | 0.0749 | 0.0483
I167M | 0.0568 | 0.0584 | – | 0.0596 | – | 0.0627 | – | 0.0533 | – | – | – | – | 0.052 | – | – | 0.0481
F173V | 0.0703 | 0.0745 | 0.0447 | 0.0676 | – | – | 0.0785 | – | 0.0724 | 0.0645 | 0.0656 | 0.088 | 0.0508 | 0.0628 | 0.0536 | –
P89D | 0.0801 | – | – | – | – | – | – | – | – | – | – | – | 0.0449 | 0.06 | – | 0.063
N116G | 0.0525 | 0.0769 | 0.0638 | 0.0922 | – | – | – | 0.0516 | 0.0696 | 0.0723 | 0.0634 | – | 0.0575 | – | – | 0.0555
